The results in this text go back to article PMC4336329 (PLoS ONE, 2015).

Hit rate of the full screen: of about 310,000 compounds, about 14,000 (4.5%) showed an effect of 50% or more. Effects have a minus sign here. The list shows a part of the results.
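Note: peak tail current of the secondary pulse compared with the same well before compound.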

Sequence of human ether-à-go-go-related gene (hERG) potassium channel (Q12809 whole entry, looked up): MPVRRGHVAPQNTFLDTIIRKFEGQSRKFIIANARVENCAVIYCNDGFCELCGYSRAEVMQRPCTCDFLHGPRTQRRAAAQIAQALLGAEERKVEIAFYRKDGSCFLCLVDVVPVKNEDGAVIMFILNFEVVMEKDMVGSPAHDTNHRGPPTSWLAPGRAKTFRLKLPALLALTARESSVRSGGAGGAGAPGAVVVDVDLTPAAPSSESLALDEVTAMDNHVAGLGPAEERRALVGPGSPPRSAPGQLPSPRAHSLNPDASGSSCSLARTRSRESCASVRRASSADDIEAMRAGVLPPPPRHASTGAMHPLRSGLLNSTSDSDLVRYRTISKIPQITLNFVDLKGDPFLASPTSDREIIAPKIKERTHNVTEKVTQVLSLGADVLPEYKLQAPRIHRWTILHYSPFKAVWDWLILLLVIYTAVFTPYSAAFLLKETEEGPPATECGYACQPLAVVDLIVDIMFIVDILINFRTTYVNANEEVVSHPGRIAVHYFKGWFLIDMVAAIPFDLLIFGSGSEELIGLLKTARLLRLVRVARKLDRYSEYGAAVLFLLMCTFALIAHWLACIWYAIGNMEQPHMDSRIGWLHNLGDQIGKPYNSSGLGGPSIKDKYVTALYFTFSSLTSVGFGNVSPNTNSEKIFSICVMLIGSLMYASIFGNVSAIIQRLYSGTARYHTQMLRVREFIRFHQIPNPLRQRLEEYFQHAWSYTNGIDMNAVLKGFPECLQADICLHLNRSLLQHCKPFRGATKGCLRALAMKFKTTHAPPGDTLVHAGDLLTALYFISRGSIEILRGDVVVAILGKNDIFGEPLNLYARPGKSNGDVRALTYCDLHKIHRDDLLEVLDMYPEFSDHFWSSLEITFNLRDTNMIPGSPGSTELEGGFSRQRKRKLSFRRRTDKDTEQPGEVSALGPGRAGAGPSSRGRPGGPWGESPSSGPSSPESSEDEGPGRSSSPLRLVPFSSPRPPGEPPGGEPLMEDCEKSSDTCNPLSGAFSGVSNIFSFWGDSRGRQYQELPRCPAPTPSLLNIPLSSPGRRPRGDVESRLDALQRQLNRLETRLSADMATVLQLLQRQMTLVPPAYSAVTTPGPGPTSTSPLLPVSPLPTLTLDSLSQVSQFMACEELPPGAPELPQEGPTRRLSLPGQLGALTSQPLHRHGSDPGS

This assay addresses human ether-à-go-go-related gene (hERG) potassium channel (human, UniProt Q12809). The experiment in a line: primary screen, population patch clamp on CHO cells stably expressing hERG.
On to `CCN(Cc1cc2ccccc2[nH]c1=O)C(=O)c1cccnc1`, for which the “hERG current change (%, negative = inhibition) at 10uM” value is listed as -1.45%.
Turning to `COc1cccc(NC(C(=O)Nc2cccc(C(C)=O)c2)c2ccccc2)c1` (centres unmarked), the “hERG current change (%, negative = inhibition) at 10uM” value is recorded as -7.56%.
Next, `COc1cccc(NC(=O)CN(C)C(=O)CNC(=O)c2ccc(Oc3ccccc3)cc2)c1`: -31.4%.
Under `COc1ccc(C2C(C#N)=C(N)OC3=C2C(=O)CC(C)(C)C3)cc1OC` (centres unmarked) stands -9.48%; under `CC1CCCCN1C(=O)CSc1nnc(-c2ccccc2F)o1` (centres unmarked), -0.439%; under `COc1cc([N+](=O)[O-])ccc1NC(=O)COC(=O)c1ccc(NC(N)=O)cc1`, 11%.
Under `Cc1oc(-c2ccccc2Cl)nc1CS(=O)CC(=O)N1CCN(c2ccccc2)CC1` (centres unmarked) stands -36.5%.
In the case of `O=C(NCc1cccnc1)C1c2ccccc2C(=O)N1C1CCCCCCC1` (centres unmarked), the “hERG current change (%, negative = inhibition) at 10uM” value is listed as 4.9%.
In the case of `CCCN1C(=O)C(Cc2nc3ccccc3c(=O)n2-c2ccccc2)c2cc(C)ccc21` (centres unmarked), the “hERG current change (%, negative = inhibition) at 10uM” value is on record as -14.6%.
Consider `CCCCc1nnc(NC(=O)CN2C(=O)c3ccccc3C2=O)s1`, for which the “hERG current change (%, negative = inhibition) at 10uM” value is reported as -4.47%.
As for `CC(C)N(CC#CCC1(O)c2ccccc2-c2ccccc21)CCO`, the “hERG current change (%, negative = inhibition) at 10uM” value worked out at 2.43%.
Under `CC(=O)C(/C=N/c1ncc(C(F)(F)F)cc1Cl)=C(\C)O` stands 10.5%; under `CC1CCN(S(=O)(=O)c2ccc(C(=O)Nc3ccccn3)cc2)CC1`, 5.08%.
Regarding `COC(=O)Nc1ccc(S(=O)(=O)NC2CCCCC2)cc1`, the “hERG current change (%, negative = inhibition) at 10uM” value stood at 14.6%.
As for `CCN(CC)S(=O)(=O)c1cccc(NC(=O)c2ccc(C#N)cc2)c1`, the “hERG current change (%, negative = inhibition) at 10uM” value was -35%.
Consider `O=C(COC(=O)C1CCN(c2ccc(C(F)(F)F)cn2)CC1)Nc1ccc(Cl)cc1`, for which the “hERG current change (%, negative = inhibition) at 10uM” value is -18%.
Consider `CC(C(=O)O)n1cnc2sc3c(c2c1=O)CCCC3` (centres unmarked), for which the “hERG current change (%, negative = inhibition) at 10uM” value is reported as 15.6%.
Consider `COc1ccc(CCNC(=O)c2ccc3c(c2)OCCO3)cc1`, for which the “hERG current change (%, negative = inhibition) at 10uM” value was 7.77%.
Next, `CCc1ccc(N=C2NC(=O)/C(=C/c3cc(Br)c(OCC(=O)O)c(OC)c3)S2)cc1`: 1.05%; `O=C(COC(=O)CNC(=O)c1ccco1)NCc1ccc(F)cc1`: 11.7%; `CN1CCC(=O)N([C@H](CO)Cc2ccccc2)CC1`: 12%.
Under `Clc1ccc(-c2csc(N/N=C/c3ccco3)n2)cc1` stands 10.8%.
Consider `Nc1nonc1NC(=O)CSc1ncccc1C(=O)O`, for which the “hERG current change (%, negative = inhibition) at 10uM” value was 16.2%.
Under `Cc1ccc(Cl)cc1NC1=NC(=S)N(C(C)C)C12CCCCC2` stands 6.79%; under `COC(=O)c1ccc(CNC(=O)CN(CCC(C)C)S(=O)(=O)c2ccc3c(c2)OCCO3)cc1`, -7.95%; under `Cc1ccc(NC(=O)CSc2nc3ccccc3c3nc(CCn4cncc4C)nn23)c(C)c1`, 2.77%.
Under `NC(=O)c1ccc(NCC2COc3ccccc3O2)c([N+](=O)[O-])c1` (centres unmarked) stands -1.78%; under `COc1cc2c(C(=O)NCCCN3CCN(c4cccc(Cl)c4)CC3)cn(C)c(=O)c2cc1OC`, -46%.
Under `CCN1CCN(CCNC(=O)c2cn(Cc3ccccc3F)nn2)CC1` stands 10.1%; under `CCCc1ccc(OCc2ccc(C(=O)OC)o2)c(OC)c1`, -17.8%.
As for `CCOc1ccc(Cc2n[nH]c(=S)n2Cc2ccccc2)cc1`, the “hERG current change (%, negative = inhibition) at 10uM” value is -10.3%.
Next, `COc1cc(OC)c(-n2cc(-c3ccc(OC)c(OC)c3)[nH]c2=S)cc1Cl`: 12.8%; `CC1(C)N([O-])c2cc([N+](=O)[O-])ccc2[N+]1=O.NO`: 17.9%.
Next, `Cc1ccccc1NC(=O)COc1ccc2c(c1)OC(C)(C)CC2=O`: 22.6%; `CCOc1ccccc1CNC(=O)c1cc2oc3ccccc3c2n1CC`: -0.486%; `CCN(CC)c1ccc(N=Cc2c(O)[nH]c(=O)[nH]c2=O)cc1`: -1.25%.
For `CCCCNC(=O)Cn1nc(Cc2ccncc2)c2ccccc2c1=O`, the “hERG current change (%, negative = inhibition) at 10uM” value turned out to be 14.5%.
As for `O=C(Nc1ccccn1)C1(c2cccs2)CCOCC1`, the “hERG current change (%, negative = inhibition) at 10uM” value is on record as 8.48%.
With `Cn1cc(C(=O)N/N=C/c2cc(Br)cs2)c2ccccc21`, the “hERG current change (%, negative = inhibition) at 10uM” value came to 20.9%.
Next, `Cc1onc(-c2ccccc2Cl)c1C(=O)N1CCN(c2cccc(Cl)c2)CC1`: 13.6%.
Regarding `Cc1ccc(-n2ccnc(SCC(=O)NCCc3ccccc3)c2=O)cc1F`, the “hERG current change (%, negative = inhibition) at 10uM” value was -6.44%.
Under `CN(C)S(=O)(=O)c1ccc(Cl)c(C(=O)OCC(=O)NC(=O)c2cccn2C)c1` stands -6.09%; under `Cc1ccc(-c2ccc(SCC(=O)Nc3nonc3C)nn2)cc1`, 4.05%.
Under `O=C(NCc1cn(-c2ccccc2)nc1-c1ccccc1)c1cc([N+](=O)[O-])cc([N+](=O)[O-])c1` stands 11.1%; under `CCC(C)NC(=O)Cn1cnc([N+](=O)[O-])c1` (centres unmarked), 11.8%; under `COc1cc2cc(C)c3nnc(SCC(=O)Nc4cc(C)on4)n3c2cc1OC`, 18.4%.
Under `COc1ccc(-n2c(-c3ccc(Br)cc3)n[nH]c2=S)cc1` stands 13.3%.
On to `COc1cc(OC)c(OC)cc1/C=N/n1c(COc2ccccc2)n[nH]c1=S`, for which the “hERG current change (%, negative = inhibition) at 10uM” value is reported as 17%.
Take `COc1ccc(C(=O)OC(C)CN2CCOCC2)cc1OC.Cl` (centres unmarked): the “hERG current change (%, negative = inhibition) at 10uM” value was 3.54%.
Next, `CCOC(=O)Nc1c(C(=O)OC)[nH]c2cccc(OC)c12`: 15.6%.
Next, `COc1ccc(CN(C(=O)c2snc(C(N)=O)c2N)C(C(=O)NC2CCCC2)c2ccco2)cc1` (centres unmarked): -24.3%.
Take `Cc1n(N)c2ccccc2[n+]1CC(=O)c1ccccc1.[Br-]`: the “hERG current change (%, negative = inhibition) at 10uM” value is on record as 13.8%.
Next, `COc1ccc(/C=C(/NC(=O)c2ccco2)C(=O)NCCc2ccccc2)cc1`: -52.6%; `CC(=O)Nc1nnc(SCc2cc(=O)c(OC(=O)c3ccccc3)co2)s1`: 9.97%.
Turning to `COc1ccc(CCNC(=O)c2ccc(Cl)c(S(=O)(=O)N(C)c3ccccc3)c2)cc1`, the “hERG current change (%, negative = inhibition) at 10uM” value was determined as 3.8%.
Under `CCCCNC(=O)Nc1ccc(C(O)(C(=O)OC)C(F)(F)F)cc1` (centres unmarked) stands -9.4%.
